The supplement of paper PMC8728848
Some of the results follow.

Legend:
Assay in all cases: glycan array binding signal (z-score within array); higher = stronger binding
Conditions in all cases: glycan notation: IUPAC condensed, linker removed
[1] = molecular target: Fuc(a1-2)Gal(b1-4)GlcNAc(b1-3)Gal(b1-4)GlcNAc(b1-2)Man(a1-3)[Fuc(a1-2)Gal(b1-4)GlcNAc(b1-3)Gal(b1-4)GlcNAc(b1-2)Man(a1-6)]Man(b1-4)GlcNAc(b1-4)GlcNAc
In short: (§1)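 Glycan array data were curated from 3228 arrays in the Consortium for Functional Glycomics database and kept only where the protein sequence was available. Glycan names were converted to IUPAC-condensed notation, and columns mapping to the same glycan were averaged. The binding signal is a within-array Z-score, averaged across arrays of the same protein sequence at different concentrations or buffers and across linkers. Negative Z-scores can be read as non-binding.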

[2] = molecular target: Fuc(a1-2)Gal(b1-4)GlcNAc(b1-3)Gal(b1-4)GlcNAc(b1-3)Gal(b1-4)GlcNAc
In short: as §1

[3] = molecular target: Fuc(a1-2)Gal(b1-4)GlcNAc(b1-3)GalNAc
In short: as §1

[4] = molecular target: Fuc(a1-2)Gal(b1-4)GlcNAc(b1-3)[Fuc(a1-2)Gal(b1-4)GlcNAc(b1-6)]GalNAc
In short: as §1

[5] = molecular target: Fuc(a1-2)Gal(b1-4)GlcNAc(b1-3)[Fuc(a1-3)[Gal(b1-4)]GlcNAc(b1-6)]Gal(b1-4)Glc
In short: as §1

[6] = molecular target: Fuc(a1-2)Gal(b1-4)GlcNAc(b1-6)GalNAc
In short: as §1

[7] = molecular target: Fuc(a1-2)Gal(b1-4)GlcNAc6S
In short: as §1

[8] = molecular target: Fuc(a1-2)Gal(b1-4)[Fuc(a1-3)]GlcNAc
In short: as §1

[9] = molecular target: Fuc(a1-2)Gal(b1-4)[Fuc(a1-3)]GlcNAc(b1-2)Man(a1-3)[Fuc(a1-2)Gal(b1-4)[Fuc(a1-3)]GlcNAc(b1-2)Man(a1-6)]Man(b1-4)GlcNAc(b1-4)[Fuc(a1-6)]GlcNAc
In short: as §1

[10] = molecular target: Fuc(a1-2)Gal(b1-4)[Fuc(a1-3)]GlcNAc(b1-2)[Fuc(a1-2)Gal(b1-4)[Fuc(a1-3)]GlcNAc(b1-4)]Man(a1-3)[Fuc(a1-2)Gal(b1-4)[Fuc(a1-3)]GlcNAc(b1-2)Man(a1-6)]Man(b1-4)GlcNAc(b1-4)GlcNAc
In short: as §1

[11] = molecular target: Fuc(a1-2)Gal(b1-4)[Fuc(a1-3)]GlcNAc(b1-3)Gal(b1-4)[Fuc(a1-3)]GlcNAc
In short: as §1

[12] = molecular target: Fuc(a1-2)Gal(b1-4)[Fuc(a1-3)]GlcNAc(b1-3)Gal(b1-4)[Fuc(a1-3)]GlcNAc(b1-3)Gal(b1-4)[Fuc(a1-3)]GlcNAc
In short: as §1

[13] = molecular target: Fuc(a1-2)Gal(b1-4)[Fuc(a1-3)]GlcNAc(b1-3)GalNAc
In short: as §1

[14] = molecular target: Fuc(a1-2)Gal(b1-4)[Fuc(a1-3)]GlcNAc(b1-3)[Neu5Ac(a2-6)Gal(b1-4)GlcNAc(b1-6)]Gal(b1-4)Glc
In short: as §1

[15] = molecular target: Fuc(a1-2)Gal3S(b1-4)GlcNAc
In short: as §1

[16] = molecular target: Fuc(a1-2)Gal6S(b1-3)GlcNAc
In short: as §1

[17] = molecular target: Fuc(a1-2)Gal6S(b1-3)GlcNAc6S
In short: as §1

Fuc(a1-2)Gal6S(b1-4)Glc = molecular target: Fuc(a1-2)Gal6S(b1-4)Glc
In short: as §1

[18] = molecular target: Fuc(a1-2)Gal6S(b1-4)Glc6S
In short: as §1

Fuc(a1-2)GlcNAc = molecular target: Fuc(a1-2)GlcNAc
In short: as §1

Fuc(a1-2)[Gal(a1-3)]Gal = molecular target: Fuc(a1-2)[Gal(a1-3)]Gal
In short: as §1

[19] = molecular target: Fuc(a1-2)[Gal(a1-3)]Gal(b1-3)GalNAc
In short: as §1

[20] = molecular target: Fuc(a1-2)[Gal(a1-3)]Gal(b1-3)GalNAc(b1-3)Gal(a1-4)Gal(b1-4)Glc
In short: as §1

[21] = molecular target: Fuc(a1-2)[Gal(a1-3)]Gal(b1-3)GlcNAc
In short: as §1

[22] = molecular target: Fuc(a1-2)[Gal(a1-3)]Gal(b1-3)GlcNAc(b1-2)Man(a1-3)[Fuc(a1-2)[Gal(a1-3)]Gal(b1-3)GlcNAc(b1-2)Man(a1-6)]Man(b1-4)GlcNAc(b1-4)GlcNAc
In short: as §1

[23] = molecular target: Fuc(a1-2)[Gal(a1-3)]Gal(b1-3)GlcNAc(b1-2)Man(a1-3)[Fuc(a1-2)[Gal(a1-3)]Gal(b1-3)GlcNAc(b1-2)Man(a1-6)]Man(b1-4)GlcNAc(b1-4)[Fuc(a1-6)]GlcNAc
In short: as §1

[24] = molecular target: Fuc(a1-2)[Gal(a1-3)]Gal(b1-3)GlcNAc(b1-3)GalNAc
In short: as §1

[25] = molecular target: Fuc(a1-2)[Gal(a1-3)]Gal(b1-3)GlcNAc(b1-6)GalNAc
In short: as §1

[26] = molecular target: Fuc(a1-2)[Gal(a1-3)]Gal(b1-4)Glc
In short: as §1

[27] = molecular target: Fuc(a1-2)[Gal(a1-3)]Gal(b1-4)GlcNAc
In short: as §1

B1: ECA (Erythrina cristagalli), P83410 (protein)
chain: VETISFSFSEFEPGNDNLTLQGAALITQSGVLQLTKINQNGMPAWDSTGRTLYTKPVHMWDSTTGTVASFETRFSFSIEQPYTRPLPADGLVFFMGPTKSKPAQGYGYLGVFNNSKQDNSYQTLAVEFDTFSNPWDPPQVPHIGIDVNSIRSIKTQPFQLDNGQVANVVIKYDAPSKILHVVLVYPSSGAIYTIAEIVDVKQVLPDWVDVGLSGATGAQRDAAETHDVYSWSFQASLPE
[1]
  glycan array binding signal (z-score): -0.067
[2]
  glycan array binding signal (z-score): 1.34
[3]
  glycan array binding signal (z-score): 0.126
[4]
  glycan array binding signal (z-score): -0.153
[5]
  glycan array binding signal (z-score): -0.465
[6]
  glycan array binding signal (z-score): 1.76
[7]
  glycan array binding signal (z-score): -0.491
[8]
  glycan array binding signal (z-score): -0.238
[9]
  glycan array binding signal (z-score): 1.42
[10]
  glycan array binding signal (z-score): 1
[11]
  glycan array binding signal (z-score): -0.325
[12]
  glycan array binding signal (z-score): -0.194
[13]
  glycan array binding signal (z-score): 0.542
[14]
  glycan array binding signal (z-score): -0.142
[15]
  glycan array binding signal (z-score): 0.094
[16]
  glycan array binding signal (z-score): 1.14
[17]
  glycan array binding signal (z-score): 0.696
Fuc(a1-2)Gal6S(b1-4)Glc
  glycan array binding signal (z-score): -0.096
[18]
  glycan array binding signal (z-score): -0.123
Fuc(a1-2)GlcNAc
  glycan array binding signal (z-score): -0.263
Fuc(a1-2)[Gal(a1-3)]Gal
  glycan array binding signal (z-score): -0.15
[19]
  glycan array binding signal (z-score): -0.383
[20]
  glycan array binding signal (z-score): -0.212
[21]
  glycan array binding signal (z-score): 0.236
[22]
  glycan array binding signal (z-score): -0.808
[23]
  glycan array binding signal (z-score): -0.1
[24]
  glycan array binding signal (z-score): -0.481
[25]
  glycan array binding signal (z-score): -0.385
[26]
  glycan array binding signal (z-score): -0.337
[27]
  glycan array binding signal (z-score): -0.298
